# The whole screen tested about 310,000 compounds, of which about 14,000 (4.5%) showed an effect of 50% or more. The effect is printed as a negative number. The list shows a part of the results.
# Target: human ether-à-go-go-related gene (hERG) potassium channel (human, UniProt Q12809)
# Assay: primary screen, population patch clamp on CHO cells stably expressing hERG
# 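Further: peak tail current of the secondary pulse compared with the same well before compound.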
# human ether-à-go-go-related gene (hERG) potassium channel, sequence (Q12809 whole entry, looked up): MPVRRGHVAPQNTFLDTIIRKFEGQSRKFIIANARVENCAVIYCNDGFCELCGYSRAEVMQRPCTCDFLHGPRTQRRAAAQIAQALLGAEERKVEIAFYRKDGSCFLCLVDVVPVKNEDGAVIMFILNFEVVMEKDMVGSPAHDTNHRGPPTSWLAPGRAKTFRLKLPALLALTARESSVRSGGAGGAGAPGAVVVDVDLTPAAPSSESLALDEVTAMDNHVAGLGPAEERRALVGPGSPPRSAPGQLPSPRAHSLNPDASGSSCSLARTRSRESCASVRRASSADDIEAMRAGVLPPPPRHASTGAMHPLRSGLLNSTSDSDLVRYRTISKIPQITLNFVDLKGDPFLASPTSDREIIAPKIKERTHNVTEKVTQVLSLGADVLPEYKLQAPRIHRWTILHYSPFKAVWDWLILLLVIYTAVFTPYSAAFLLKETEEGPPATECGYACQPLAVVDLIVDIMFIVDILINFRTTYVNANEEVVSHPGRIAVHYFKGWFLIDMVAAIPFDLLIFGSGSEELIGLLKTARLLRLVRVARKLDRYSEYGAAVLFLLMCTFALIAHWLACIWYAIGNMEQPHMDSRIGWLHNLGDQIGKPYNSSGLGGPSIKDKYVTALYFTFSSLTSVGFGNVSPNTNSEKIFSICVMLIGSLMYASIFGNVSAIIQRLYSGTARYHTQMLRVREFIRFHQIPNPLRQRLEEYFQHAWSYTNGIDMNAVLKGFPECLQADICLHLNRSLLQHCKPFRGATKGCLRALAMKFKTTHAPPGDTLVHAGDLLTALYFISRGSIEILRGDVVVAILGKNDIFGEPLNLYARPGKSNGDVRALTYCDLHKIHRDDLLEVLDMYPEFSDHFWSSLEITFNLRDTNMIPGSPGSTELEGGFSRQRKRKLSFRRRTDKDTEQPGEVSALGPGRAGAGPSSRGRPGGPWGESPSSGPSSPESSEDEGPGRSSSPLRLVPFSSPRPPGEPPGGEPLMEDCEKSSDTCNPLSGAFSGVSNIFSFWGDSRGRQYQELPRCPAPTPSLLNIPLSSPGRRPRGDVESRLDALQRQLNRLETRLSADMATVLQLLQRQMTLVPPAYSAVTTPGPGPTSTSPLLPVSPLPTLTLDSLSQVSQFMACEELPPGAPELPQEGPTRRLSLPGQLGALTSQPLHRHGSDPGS
row,SMILES,"hERG current change (%, negative = inhibition) at 10uM [%]"
1,CC(C)c1cc(C(=O)N2CCCC(Nc3ccc(F)cc3)C2)nc(N)n1 (stereo not drawn),17.8
2,COC(=O)[C@@H]1[C@@H](C#N)C2(c3ccccc3-c3ccccc32)N(c2ccc(Cl)cc2)N1C#N,3.67
3,CCn1c(SCC(=O)Nc2ccc3c(c2)OCCO3)nnc1-c1ccccn1,-16.1
4,C=CCN1C(=O)C(CC(=O)O)SC1=Nc1cccc([N+](=O)[O-])c1 (stereo not drawn),6.72
5,Cc1nn(Cc2ccc(F)cc2)c(C)c1NC(=O)C1c2ccccc2Oc2ccccc21,17.1
6,Cc1ccc(NC(=O)C2CCN(S(=O)(=O)c3c(C)[nH]c(=O)[nH]c3=O)CC2)cc1,12.9
7,CCOC(=O)c1c(S(=O)(=O)N2CCN(C3CCCCC3)CC2)c(C)n(C)c1C,-35.1
8,Cc1ccc(-c2nc3ccccc3c(=O)n2-c2cccc(C)n2)cc1,-2.48
9,Cc1cccc(NC(=O)NCc2ccc3c(c2)OCO3)c1C,2.89
10,COC(=O)c1nn(-c2ccccc2)c(=O)cc1Sc1ccc(Cl)cc1,3
11,CC(OC(=O)Cc1n[nH]c(=O)c2ccccc12)C(=O)Nc1ccc(Cl)cn1 (stereo not drawn),-9.18
12,Cc1ccc(C)c(N(CC(=O)NC2CCCC2)C(=O)c2csnn2)c1,12
13,O=C(COc1ccc(Cl)cc1Cl)NNC(=S)NCc1ccco1,-19.6
14,COc1cc(OC)cc(C(=O)NCCSC2CCCCC2)c1,-19.7
15,CN(C)S(=O)(=O)c1ccc(Cl)c(C(=O)Nc2cccc3ncccc23)c1,3.53
16,O=C(c1cnccn1)N1CCc2ccccc2C1,3.49
17,Cc1ccc(Nc2nc(CSc3nnnn3C)cs2)cc1,-14.8
18,CS(=O)(=O)Nc1cccc(C2=NN(C(=O)c3ccc(F)cc3)C(c3cccs3)C2)c1 (stereo not drawn),-7.71
19,CCN(CC)S(=O)(=O)c1ccc(Cl)c(NC(=O)COC(=O)C2CCCCC2)c1,-3.35
20,COc1ccc(N2CC(C(=O)NC3CC(C)(C)NC(C)(C)C3)CC2=O)cc1 (stereo not drawn),-2.68
21,CN(C(=O)COc1ccc(-c2nnco2)cc1)C1CCS(=O)(=O)C1 (stereo not drawn),-8.5
22,O=C(NS(=O)(=O)c1ccccc1)c1ccccc1O,-6.27

row,SMILES,"hERG current change (%, negative = inhibition) at 10uM [%]"
1,O=C(/C=C/NNC(=O)c1ccccc1)c1ccccc1,-6.75
2,Cc1ccc(C2CC(c3ccco3)=NN2S(C)(=O)=O)cc1 (stereo not drawn),-2.3
3,O=C(COC(=O)Cc1ccsc1)Nc1ccccc1,5
4,CCOc1ncccc1C(=O)Nc1cc(S(=O)(=O)N2CCCCC2)ccc1Cl,20.5
5,O=C(NCc1ccc2c(c1)OCO2)c1n[nH]c(=O)c2ccccc12,20.6
6,COc1ccc(-c2noc(=O)n2Cc2cc(C)ccc2C)cc1,-3.12
7,CN(CC(=O)NC1CCN(Cc2ccccc2)CC1)S(=O)(=O)c1ccc(Cl)s1,-67.9
8,COC(=O)c1cccc(CN2C(=O)SC(Nc3ccc(C)cc3)C2=O)c1 (stereo not drawn),8.07
9,Cc1ccc(S(=O)(=O)N2CC(O)CC2C(=O)OCc2nc3sc(C)c(C)c3c(=O)[nH]2)cc1 (stereo not drawn),-9.59
10,O=[N+]([O-])c1ccccc1S(=O)(=O)Nc1ccc(-c2ccc3nncn3n2)cc1,-22
11,COc1ccc(C)cc1Nc1nc(-c2c[nH]c3ccccc23)cs1,4.34
12,COc1ccc(-n2nc3c(c2NC(=O)CCCCl)CSC3)cc1,-1.78
13,Cc1cc(/C=N/NC(=O)c2c(Br)cnn2C)c(C)n1-c1cccc(Br)c1,10.4
14,c1ccc2nc3c(nc2c1)c1ccccc1n3CCN1CCOCC1,-48.5
15,CCN1CCN(c2ccc(S(=O)(=O)N3CCCCC3)cc2NC(=O)/C=C/c2cc(OC)ccc2OC)CC1,-52.7
16,COc1cccc(NC(=S)NCc2ccccn2)c1,12.5
17,S=C(NCCC1=CCCCC1)Nc1ccccc1,11.1
18,Cc1cc(NC(=O)CSc2nnc(C(C)N(C)C)n2Cc2ccccc2)no1 (stereo not drawn),10.8
19,Cc1ccc(OCC(O)CN2CCN(Cc3ccc4c(c3)OCO4)CC2)c(C)c1.Cl (stereo not drawn),-57.1
20,COCCn1c(SCC(=O)NCc2ccc3c(c2)OCO3)nc2ccccc2c1=O,-42.4
21,CCN(CC)CCN(C(=O)c1ccc([N+](=O)[O-])cc1)c1nc2ccc(OC)cc2s1.Cl,-49.7
22,Cc1ccc(C(=O)O)cc1-c1ccc(/C=C2\SC(=O)N(CC(=O)Nc3ccccc3)C2=O)o1,3.74

row,SMILES,"hERG current change (%, negative = inhibition) at 10uM [%]"
1,COCCCNc1nc2nonc2nc1N1CCN2CCCC2C1 (stereo not drawn),22.6
2,CCOCCn1c(N2CCN(c3ccccc3)CC2)nc2c1c(=O)n(C)c(=O)n2C,-24.5
3,CN(C)S(=O)(=O)c1cccc(NC(=O)CNC2CCCCC2)c1.O=C(O)C(=O)O,5.24
4,CN(CC(=O)Nc1ccc(Cl)c(C(F)(F)F)c1)C(=O)CCCc1nc2ccccc2c(=O)[nH]1,12.1
5,Cc1ccc2c(c1)N(CCC(=O)NC1CC1)C(=O)C(C)O2 (stereo not drawn),1.3
6,Cc1ccc(NC(=O)CSc2nnc(N)s2)cc1S(=O)(=O)N1CCCCC1,-4.28
7,Cc1ccc(C(=O)NNC(=O)C2CCN(Cc3ccccc3)CC2)cc1,-5.71
8,NC(=S)Nc1cccc2[nH]ccc12,7.89
9,COc1ccc(/C=N/Nc2nc(C)nc(N)n2)cc1,-25.6
10,Cc1cccc(OCc2nnc(SCc3cc(=O)[nH]c4ccccc34)n2-c2ccccc2)c1,-21.1
11,CCC(CC)c1nnc(NC(=O)C2CC(=O)N(c3ccc4c(c3)OCCO4)C2)s1 (stereo not drawn),-20.9
12,O=C(O)C1=C[C@H](C2CC2)C[C@H](OCCCCO)O1,2.71
13,COC(=O)/C(=C(/F)Sc1cc(C)c(O)c(C)c1)C(F)(F)F,0.738
14,C=C(C)COc1ccc(-c2n[nH]c(C)c2-c2ccc(OC)cc2)c(O)c1,4.85
15,CCOC(=O)CN1Cc2cccc(C(=O)O)c2C1=O,6.31
16,CCCCCCCCNC(=O)/C(C#N)=C/c1ccc2c(c1)OCCO2,15.2
17,CCOc1c(OC)cccc1C1CC(=O)Nc2cc(OC)c(OC)cc21 (stereo not drawn),1.37
18,NC(=O)C1CCCN(C(=O)Nc2cccc3ccccc23)C1 (stereo not drawn),1.8
19,CC1=NN(Cc2ccccc2)C(=O)C1C(c1ccncc1)C(C#N)C#N (stereo not drawn),-3.95
20,Cc1csc(Sc2ccc(C(=O)OCC(=O)Nc3ccc(OC(F)(F)F)cc3)cc2[N+](=O)[O-])n1,3.83
21,CCC(NC(=O)CCCc1ccccc1)c1ccccc1 (stereo not drawn),-7.93
22,Cc1ccc(C2=NNC(C(O)C(O)C(O)C(C)O)S2)cc1 (stereo not drawn),1.91

row,SMILES,"hERG current change (%, negative = inhibition) at 10uM [%]"
1,O=C(CCC(=O)c1ccccc1)Nc1cccnc1,-1.8
2,CCOc1ccc(S(=O)(=O)Nc2cc(Cl)ccc2O)cc1,3.04
3,CCOC(=O)C1(Cc2ccc(OC)cc2)CCN(C(=O)[C@@H]2CCCN2C(C)=O)CC1,7.14
4,Cl.Clc1ccc(-c2ccc(CNCc3ccccn3)o2)cc1,-52.4
5,O=C(NC(=S)Nc1cccc(NC(=O)c2ccccc2)c1)c1cccc([N+](=O)[O-])c1,12.3
6,CC(=O)c1cn(CCOc2cc(C)ccc2C)c2ccccc12,22.9
7,COc1ccc(C2OC(=O)CC2C(=O)NC2CCCC(C)C2C)cc1OC (stereo not drawn),17.4
8,Cc1cc(C)c(NC(=O)CSc2nc3ncc(Cl)cc3[nH]2)c(C)c1,16.3
9,Cc1ccnc(NS(=O)(=O)Cc2ccccc2)c1,8.01
10,O=C(NC(=O)c1ccccc1)NC(=O)c1ccccc1,9.76
11,CCN1CCN(CCCNC(=O)C2CCN(c3nnc(-n4c(C)ccc4C)s3)CC2)CC1,1.05
12,Cc1sc(N/N=C/c2ccco2)nc1-c1ccccc1,-4.11
13,O=C(NCC1CCCO1)C(c1cccnc1)N(C(=O)Cc1cccs1)c1cccnc1 (stereo not drawn),-8.38
14,CCOc1ccc(C(C)NC(=O)CN2C(=O)NC3(CCCCC3)C2=O)cc1OCC (stereo not drawn),21.3
15,Cc1occc1C(=O)NNC1=CC(=O)CC(C)(C)C1,13.3
16,CC(=O)N1c2ccccc2Nc2ccccc21,9.66
17,CCCc1cc(=O)[nH]c(SCC(=O)N2N=C(c3ccc(Cl)cc3)CC2c2ccco2)n1 (stereo not drawn),11.2
18,COc1cc(NC(=O)c2cc(OC)c(OC)c(OC)c2)c(OC)cc1NC(=O)CN1CCCCC1,0.976
19,CCOC(=O)N1CCN(C(=O)/C(=C/c2cccc3ccccc23)NC(=O)c2ccc(OC)cc2)CC1,-50.9
20,O=C(c1ccco1)N1CCN(C(=S)Nc2ccccc2Cl)CC1,1.03
21,O=C1C2CSCN2C(=O)CN1CCCN1CCN(C(c2ccccc2)c2ccccc2)CC1 (stereo not drawn),-53.6

# — PMC4336329 (PLoS ONE, 2015)
